Results on one molecule are retold here after publication PMC5512577 (2016).

The target of the experiment is phosphodiesterase 6 delta subunit (PDE6δ), N-terminal histidine-tagged (UniProt O43924 1-150). Put plainly: FP; mantGppNHp-loaded Arl; stopped-flow.
Chain of UniProt O43924 (O43924 whole entry, stated change not applied): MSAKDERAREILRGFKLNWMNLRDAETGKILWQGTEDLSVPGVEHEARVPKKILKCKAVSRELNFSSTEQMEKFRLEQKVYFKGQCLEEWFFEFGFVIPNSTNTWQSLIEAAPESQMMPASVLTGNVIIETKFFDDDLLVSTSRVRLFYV

B1: N-terminally truncated Arl3 ([…]), bound to GppNHp or mantGppNHp (domain or fragment)
chain: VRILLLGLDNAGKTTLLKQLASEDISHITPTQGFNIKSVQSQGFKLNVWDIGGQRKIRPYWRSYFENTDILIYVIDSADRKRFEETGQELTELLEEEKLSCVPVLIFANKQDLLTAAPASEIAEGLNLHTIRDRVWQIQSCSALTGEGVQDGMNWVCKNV
With B1, the koff – broadly, a measure of how fast the partners let go of each other – was found to be 0.92 s⁻¹.
